Consider 167 variants from the RNAGym collection of RNA variant scans (doi:10.7554/elife.90254).

Read counts are not given, so values of variants with three or more changes are uncertain.

B1: LINE1-mini (parent)
chain: GGCAGAGCUCAACACAGCGUGGCAAAGUGGCUGUGGCUAGACUGCC

The variants in this series derive from B1. Briefly: self-cleavage, relative activity (ratio to wild type); higher = more cleavage; in vitro, sequencing; the parent is a self-cleaving ribozyme.
G2C A26U G27C: the self-cleavage was found to be 0.03.
On to G2C C15A G19C G21U C42G C46U, for which the self-cleavage is 0.02.
Next, G2C C8A G30U G40A: 0.09.
Take G2C C15U G21C G33A G44U: the self-cleavage turned out to be 0.26.
Turning to G2C C18A A24G, the self-cleavage is 0.06.
For G2C A24C G29A U34A, the self-cleavage was 0.03.
On to G2C A14G C23G, for which the self-cleavage was found to be 0.05.
Turning to G2A U38G C46G, the self-cleavage turned out to be 0.02.
As for G2C A24C U28A C42A, the self-cleavage was 0.02.
G2C C15G A16U C18A: the self-cleavage worked out at 0.03.
Next, G2C C8A U43A: 0.32.
Take G2C C3G C8U U9A C31U C42A: the self-cleavage stood at 0.13.
In the case of G2C C3A C8A A24C, the self-cleavage stood at 0.16.
For G2C C13U G17A C18U G40U, the self-cleavage came to 0.05.
Consider G2C A12U C31G C45A, for which the self-cleavage worked out at 0.01.
Turning to G2C C18A G22C U34G C45G, the self-cleavage was found to be 0.
Next, G2C C8A C18A C42A G44C: 0.07.
The value for G2C A26C U34A G36U was 0.03; that for G2C A25U G29U was 2.91.
G2C A6G C15A G17A G22A: the self-cleavage is 0.12.
The value for G2C A25G G27C A39U C45G was 0.3.
In the case of G2C A11U C13U C15G A25C C37A, the self-cleavage came to 0.01.
G2C C15G C18U G27C G33U: the self-cleavage is 0.01.
For the variant G2C A11C C13U A41C C46A, the self-cleavage turned out to be 0.
Regarding G2C A6U A24G C37U, the self-cleavage turned out to be 0.02.
Regarding G2C A6G G22C C37G, the self-cleavage is 0.01.
The value for G2C C18U G21C U32A G40U C45A was 0.08; that for G2C C10U C18G A24G A41C was 0.01.
For the variant G2C C13U G17U U34A, the self-cleavage worked out at 0.11.
Regarding G2C C31U C42A, the self-cleavage was 0.04.
The value for G2C C10A U34G was 0.04; that for G2C C10A U34A was 0.02.
Next, G2C A4U C10A G21C A24U A26G: 0.01.
As to G2C A11U G17A U43A, the self-cleavage was 0.01.
Regarding G2C C18U G19A G29U G36C C42U, the self-cleavage stood at 0.02.
In the case of G2C C23G A25G U34G, the self-cleavage was 0.02.
Take G2C C3A U32A: the self-cleavage was determined as 0.07.
G2C C3A A4G G5C G17A C18U: the self-cleavage was 0.04.
With G2C C10G A14U G33A, the self-cleavage stood at 0.01.
The value for G2C A6C C15A C37G G40A was 0.01; that for G2C A14C A25G A39G C46A was 0.01.
With G2C A16G G21C, the self-cleavage stood at 0.28.
Regarding G2C C3G C31U C46G, the self-cleavage was found to be 0.06.
The value for G2C C10A A14U A24C C31G G40U was 0.01; that for G2C A6U U38G A39C A41U C45U was 0.54.
The value for G2C C13G G22U A41U was 0; that for G2C A25C A26U C42U was 0.09.
With G2C C23A A25U G33A, the self-cleavage amounted to 0.02.
With G2C A14C C42G, the self-cleavage is 0.01.
Regarding G2C C10A A26C U32G G33A C45G, the self-cleavage is 0.01.
The value for G2C A11G G21U U32A C45G was 0.01; that for G2C C3G G17U C42U was 0.09.
Regarding G2C A14U G19U C31G, the self-cleavage turned out to be 0.06.
For G2C C18U G19C A24C G44U, the self-cleavage was 0.03.
Next, G2C A6C G36U U43A: 0.01; G2C C3U A11C G22U C46A: 0.09; G2C A14G G35C: 0.03.
The value for G2C A4U C18U C45U was 0.01.
Turning to G2C G5A A12G G22A C23A, the self-cleavage turned out to be 0.02.
In the case of G2C C8U G36C, the self-cleavage turned out to be 0.12.
The value for G2C C15U C18A was 0.01.
Consider G2C C15A A25U, for which the self-cleavage was 0.11.
As for G2C A6U A12G A41G, the self-cleavage is 0.03.
Turning to G2C A26U G30A G36C, the self-cleavage was found to be 0.1.
In the case of G2C A11G A41G G44C, the self-cleavage worked out at 0.03.
As to G2C C10A C13U G22A U32A A39C, the self-cleavage stood at 0.01.
G2C A4C U20A: the self-cleavage is 0.03.
For G2C A11C A16C A25G G29A, the self-cleavage was found to be 0.01.
As to G2C A4U G5C C13U U28A G36U C46U, the self-cleavage is 0.02.
In the case of G2C A11C G19U U28C G33C C37G G44A, the self-cleavage amounted to 0.01.
For G2C A6C C42G, the self-cleavage came to 0.13.
Next, G2C A4C C10U G29U G44C: 0.01.
In the case of G2C A11U G19U A25C C37G, the self-cleavage was found to be 0.01.
The value for G2C C10G C13A C18A was 0.01; that for G2C C3U C13G A16C G17A U32A C46A was 0.02; that for G2C A14G G44U was 0.02.
In the case of G2C C31A U32C C37U, the self-cleavage is 0.04.
As to G2C A12G A41C, the self-cleavage was determined as 0.04.
In the case of G2C A6C U20C C23U G33C U34G, the self-cleavage turned out to be 0.01.
For G2C A12G G21U U28A, the self-cleavage was 0.02.
As for G2C A14C G35U, the self-cleavage amounted to 0.08.
For the variant G2C C3U A16U G21A G22A, the self-cleavage is 0.03.
The value for G2C A4C C23U C37G was 0.04.
For G2C A6G C8A C23A U43G G44A, the self-cleavage was determined as 0.01.
Turning to G2C C8G A25G G36U, the self-cleavage came to 0.06.
With G2C A12U G33A, the self-cleavage is 0.03.
Next, G2C A11C C31U A39U: 0; G2C C37A U43A: 0.45; G2C A11U G30C C37A G40C U43C: 0.
Next, G2C C15A U34G: 0.01; G2C A26U G44U: 0.12.
As to G2C C23G A24C, the self-cleavage was found to be 0.01.
Turning to G2C C10A G19A A26G, the self-cleavage stood at 0.02.
In the case of G2C C10U A12U G19U, the self-cleavage was 0.05.
The value for G2C A4U C10A U28G A41G G44C C46A was 0.01.
Next, G2C C37U C46U: 0.23; G2C C31A G36A: 0.03.
With G2C A14G C15A, the self-cleavage came out at 0.13.
In the case of G2C C3U C23G G44U, the self-cleavage was 0.21.
For the variant G2C C3U G19A, the self-cleavage amounted to 0.12.
With G2C C8G A12U, the self-cleavage was found to be 0.05.
Turning to G2C A12U C13G A24C, the self-cleavage came out at 0.05.
The value for G2C A4C A24C G36U was 0.05; that for G2C C3U A14G C18U G40C was 0.13.
In the case of G2C C15U G21A G30U, the self-cleavage was 0.17.
Turning to G2C C3A A14C G27C C37G A39C, the self-cleavage was determined as 0.08.
Consider G2C C15A C18U, for which the self-cleavage was 0.12.
Consider G2C C15G C31U, for which the self-cleavage is 0.07.
Consider G2C A4G A16U A25G U28G G36A G40C, for which the self-cleavage worked out at 0.01.
G2C C3U C31G C45U: the self-cleavage amounted to 0.03.
Next, G2C C3A C10G A26C C31U: 0.04; G2C A11U A16C: 0.01.
As to G2C C23G A24U G33C G44A, the self-cleavage was 0.01.
Regarding G2C A12C G33C C42G, the self-cleavage turned out to be 0.
Take G2C C8G A14G G35A: the self-cleavage came out at 0.14.
With G2C A24U G27U, the self-cleavage was found to be 0.09.
Take G2C A12G C18U G19C G21C G36U G44U: the self-cleavage came to 0.
As to G2C A16C A24C U43C, the self-cleavage came to 0.05.
Regarding G2C C3A A6U G35A, the self-cleavage was found to be 0.03.
Regarding G2C A14G G27A G30U, the self-cleavage worked out at 0.01.
For G2C A12U C23U G30A C46A, the self-cleavage stood at 0.02.
Regarding G2C A6G G21U, the self-cleavage stood at 0.03.
On to G2C A4U G7A G29A G40C, for which the self-cleavage was found to be 0.11.
For G2C A16G A24G C37A C46G, the self-cleavage stood at 0.61.
The value for G2C C23A G36C U38A A39C was 0.01.
Consider G2C C3G G7U A14U G29A C31A, for which the self-cleavage stood at 0.24.
Take G2C C8U C37U: the self-cleavage was found to be 0.08.
With G2C A4U A14U, the self-cleavage worked out at 0.07.
Take G2C A4C U28C A41U: the self-cleavage is 0.08.
Next, G2C A6C A11G: 0.01.
Consider G2C C23G G30U G33A, for which the self-cleavage amounted to 0.09.
For the variant G2C C13U A16C, the self-cleavage was determined as 0.15.
The value for G2C C3A G27C U32G U34G U38A C45G was 0.01; that for G2C A6G C8A A11G A12U C15A A24U G36U G44C was 0.01; that for G2C C13U A26G G29C G44A was 0.13.
For G2C A11G C18A, the self-cleavage stood at 0.
Turning to G2C A4C G35A, the self-cleavage amounted to 0.19.
With G2C C3A A4G G19U G21A, the self-cleavage came to 0.04.
For the variant G2C A6C G7A G30A, the self-cleavage is 0.48.
In the case of G2C C3A G22A G27U, the self-cleavage came to 0.13.
In the case of G2C A14U C31G U38G, the self-cleavage was determined as 0.09.
As for G2C C13A C18G, the self-cleavage was 0.05.
As to G2C C31U C37A C45A, the self-cleavage worked out at 0.04.
Take G2C C18A U32A G36U A41G: the self-cleavage is 0.01.
Consider G2C A4C G17C, for which the self-cleavage was determined as 0.
On to G2C C10U G17A C23U, for which the self-cleavage turned out to be 0.05.
G2C A12G C13A: the self-cleavage worked out at 0.03.
Next, G2C C10U A16G U34C: 0.04.
Next, G2C C3A C37A A41G: 0.07.
The value for G2C C8U G19A was 0.18; that for G2C C8G A16C was 0.12.
Turning to G2C A16U G40A, the self-cleavage came out at 0.01.
For G2C C31U A41G, the self-cleavage came out at 0.07.
Turning to G2C C3A A4G C8U G21A, the self-cleavage came to 0.19.
Take G2C C10G C13A G30U: the self-cleavage was 0.03.
In the case of G2C C8G A25G A39U, the self-cleavage is 0.11.
For G2C C15U U20C, the self-cleavage amounted to 0.
As to G2C C8U C18A A26U, the self-cleavage is 0.05.
With G2C A14G U28C A41U G44U, the self-cleavage was determined as 0.03.
Take G2C A4C G5A C13G A16C: the self-cleavage is 0.02.
For G2C A16C A41G, the self-cleavage is 0.02.
The value for G2C A6U A14G C15G G29U was 0.04; that for G2C A16C C23A C31U was 0.08.
For the variant G2C C13U A16U C45U, the self-cleavage worked out at 0.02.
With G2C A14U A26U C42U U43C, the self-cleavage was 0.
Regarding G2C C18G A39G, the self-cleavage amounted to 0.
G2C C15U C18U G35A: the self-cleavage turned out to be 0.09.
